We go through four compounds from publication PMC10458444 (Viruses, 2023).

pKd: −log10 of the molar value. Counter-ions that a name gives are not always drawn.

The target of the first test is T1, SARS-CoV-2 S protein (Severe acute respiratory syndrome coronavirus 2, UniProt P0DTC2). Briefly: biochemical. The format is binding.
Conditions: not given
Regarding `CC(=O)c1ccc2c(c1)N(CCCN(C)C)c1ccccc1S2` [Acepromazine maleate, acepromazine maleate], the pKd (as a rule, the Kd on a negative log10 scale, so that one unit is a factor of ten) is 4.27.

`CC(CN(C)C)CN1c2ccccc2Sc2ccccc21` (centres unmarked) [Alimemazine hemitartrate, alimemazine hemitartrate] showed a pKd of 3.36.

`CCCCCCCCCC(=O)OCCN1CCN(CCCN2c3ccccc3Sc3ccc(C(F)(F)F)cc32)CC1` [Fluphenazine decanoate, fluphenazine decanoate] showed a pKd of 4.22.

With `OCCN1CCN(CCCN2c3ccccc3Sc3ccc(Cl)cc32)CC1` [Perphenazine, perphenazine], the pKd was 3.01.

The target of another test is T1, SARS-CoV-2 S protein.
Assay: not given
The format is biochemical. To be noted: recombinant S and CTSL, 37 °C 1 h, silver staining.
Turning to `CC(=O)c1ccc2c(c1)N(CCCN(C)C)c1ccccc1S2` [Acepromazine maleate, acepromazine maleate], the “effect on cleavage of S protein by CTSL protein” value (shortened to “effect on cleavage of S protein”) is given as “prevented the cleavage of S protein by CTSL protein”.

Consider `CC(CN(C)C)CN1c2ccccc2Sc2ccccc21` (centres unmarked) [Alimemazine hemitartrate, alimemazine hemitartrate], for which the “effect on cleavage of S protein” value is on record as “prevented the cleavage of S protein by CTSL protein”.

For `CCCCCCCCCC(=O)OCCN1CCN(CCCN2c3ccccc3Sc3ccc(C(F)(F)F)cc32)CC1` [Fluphenazine decanoate, fluphenazine decanoate], the “effect on cleavage of S protein” value is “prevented the cleavage of S protein by CTSL protein”.

In the case of `OCCN1CCN(CCCN2c3ccccc3Sc3ccc(Cl)cc32)CC1` [Perphenazine, perphenazine], the “effect on cleavage of S protein” value is “prevented the cleavage of S protein by CTSL protein”.
